According to publication PMC12820563:
Some of the results follow. The list includes weakly bound sequences.

These sequences were tested against T1, MBP-FoxP3dN (UniProt Q99JB6) (assay: PD-seq (MBP pull-down with sequencing)). Settings: 20 mM Tris-HCl pH 7.5, 100 mM NaCl, 1.5 mM MgCl2, 0.4 uM protein, 0.1 uM dsDNA library, 30 min, room temperature, amylose pull-down; high values mean tight binding; double strand, one strand shown.
T1 sequence: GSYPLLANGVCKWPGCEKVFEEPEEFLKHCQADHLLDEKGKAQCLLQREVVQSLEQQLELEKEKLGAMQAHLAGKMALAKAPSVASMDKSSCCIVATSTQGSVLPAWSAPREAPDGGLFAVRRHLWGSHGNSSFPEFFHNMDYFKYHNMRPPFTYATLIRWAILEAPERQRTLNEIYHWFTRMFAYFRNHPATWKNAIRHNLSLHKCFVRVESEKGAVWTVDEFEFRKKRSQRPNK

| Sequence | binding signal (RPM ratio (pull-down/input)) |
| --- | --- |
| GATGATTGTTCTCCCAGCTGATGAATTGCAAGGATCGAGTAAACAAATTTTCCTAATCTTTCTGTTCAAGCGCCATCTAC | 0.518 |
| GATGATTGTTCTCCCAGCTGATGAATTCAGGGTATCGAGTAAACAAATTTTCCTAATCTTTCTGTTCAAGCGCCATCTAC | 0.611 |
| GATGATTGTTCTCCCAGCTGATGAATTCGGACTATCGAGTAAACAAATTTTCCTAATCTTTCTGTTCAAGCGCCATCTAC | 0.499 |
| GATGATTGTTCTCCCAGCTGATGAATTATTCGTCTCGAGTAAACAAATTTTCCTAATCTTTCTGTTCAAGCGCCATCTAC | 0.385 |
| GATGATTGTTCTCCCAGCTGATGAATTTCATGCGTCGAGTAAACAAATTTTCCTAATCTTTCTGTTCAAGCGCCATCTAC | 0.678 |
| GATGATTGTTCTCCCAGCTGATGAATTCTCAGTCTCGAGTAAACAAATTTTCCTAATCTTTCTGTTCAAGCGCCATCTAC | 0.273 |
| GATGATTGTTCTCCCAGCTGATGAATTTATTAACTCGAGTAAACAAATTTTCCTAATCTTTCTGTTCAAGCGCCATCTAC | 1.28 |
| GATGATTGTTCTCCCAGCTGATGAATTTATCCGGTCGAGTAAACAAATTTTCCTAATCTTTCTGTTCAAGCGCCATCTAC | 0.325 |
| GATGATTGTTCTCCCAGCTGATGAATTCCAATTTTCGAGTAAACAAATTTTCCTAATCTTTCTGTTCAAGCGCCATCTAC | 0.344 |
| GATGATTGTTCTCCCAGCTGATGAATTCCTGATTTCGAGTAAACAAATTTTCCTAATCTTTCTGTTCAAGCGCCATCTAC | 0.402 |
| GATGATTGTTCTCCCAGCTGATGAATTATACGTTTCGAGTAAACAAATTTTCCTAATCTTTCTGTTCAAGCGCCATCTAC | 0.671 |
| GATGATTGTTCTCCCAGCTGATGAATTGGAGCCATCGAGTAAACAAATTTTCCTAATCTTTCTGTTCAAGCGCCATCTAC | 1.01 |
| GATGATTGTTCTCCCAGCTGATGAATTGCCTGGGTCGAGTAAACAAATTTTCCTAATCTTTCTGTTCAAGCGCCATCTAC | 0.902 |
| GATGATTGTTCTCCCAGCTGATGAATTTTGTCGATCGAGTAAACAAATTTTCCTAATCTTTCTGTTCAAGCGCCATCTAC | 1.18 |
| GATGATTGTTCTCCCAGCTGATGAATTATAGTCTTCGAGTAAACAAATTTTCCTAATCTTTCTGTTCAAGCGCCATCTAC | 0.529 |
| GATGATTGTTCTCCCAGCTGATGAATTGGGCCACTCGAGTAAACAAATTTTCCTAATCTTTCTGTTCAAGCGCCATCTAC | 4.45 |
| GATGATTGTTCTCCCAGCTGATGAATTGGACAACTCGAGTAAACAAATTTTCCTAATCTTTCTGTTCAAGCGCCATCTAC | 0.378 |
| GATGATTGTTCTCCCAGCTGATGAATTCCCAGGGTCGAGTAAACAAATTTTCCTAATCTTTCTGTTCAAGCGCCATCTAC | 0.173 |
| GATGATTGTTCTCCCAGCTGATGAATTGGATGGTTCGAGTAAACAAATTTTCCTAATCTTTCTGTTCAAGCGCCATCTAC | 0.894 |
| GATGATTGTTCTCCCAGCTGATGAATTGGACAAGTCGAGTAAACAAATTTTCCTAATCTTTCTGTTCAAGCGCCATCTAC | 0.191 |

| Sequence | binding signal (RPM ratio (pull-down/input)) |
| --- | --- |
| GATGATTGTTCTCCCAGCTGATGAATTCGACTCTTCGAGTAAACAAATTTTCCTAATCTTTCTGTTCAAGCGCCATCTAC | 0.539 |
| GATGATTGTTCTCCCAGCTGATGAATTTGTATGGTCGAGTAAACAAATTTTCCTAATCTTTCTGTTCAAGCGCCATCTAC | 6.04 |
| GATGATTGTTCTCCCAGCTGATGAATTCTCTGGCTCGAGTAAACAAATTTTCCTAATCTTTCTGTTCAAGCGCCATCTAC | 0.173 |
| GATGATTGTTCTCCCAGCTGATGAATTGCAGTCGTCGAGTAAACAAATTTTCCTAATCTTTCTGTTCAAGCGCCATCTAC | 0.901 |
| GATGATTGTTCTCCCAGCTGATGAATTACTTGTATCGAGTAAACAAATTTTCCTAATCTTTCTGTTCAAGCGCCATCTAC | 0.816 |
| GATGATTGTTCTCCCAGCTGATGAATTGGCGGCCTCGAGTAAACAAATTTTCCTAATCTTTCTGTTCAAGCGCCATCTAC | 0.449 |
| GATGATTGTTCTCCCAGCTGATGAATTTTTAGCGTCGAGTAAACAAATTTTCCTAATCTTTCTGTTCAAGCGCCATCTAC | 0.448 |
| GATGATTGTTCTCCCAGCTGATGAATTTTTTTAGTCGAGTAAACAAATTTTCCTAATCTTTCTGTTCAAGCGCCATCTAC | 0.273 |
| GATGATTGTTCTCCCAGCTGATGAATTGGATAAGTCGAGTAAACAAATTTTCCTAATCTTTCTGTTCAAGCGCCATCTAC | 0.218 |
| GATGATTGTTCTCCCAGCTGATGAATTCGGTGAGTCGAGTAAACAAATTTTCCTAATCTTTCTGTTCAAGCGCCATCTAC | 0.558 |
| GATGATTGTTCTCCCAGCTGATGAATTCAGTTTATCGAGTAAACAAATTTTCCTAATCTTTCTGTTCAAGCGCCATCTAC | 3.68 |
| GATGATTGTTCTCCCAGCTGATGAATTAACGCATTCGAGTAAACAAATTTTCCTAATCTTTCTGTTCAAGCGCCATCTAC | 6.02 |
| GATGATTGTTCTCCCAGCTGATGAATTCCTAGTATCGAGTAAACAAATTTTCCTAATCTTTCTGTTCAAGCGCCATCTAC | 0.391 |
| GATGATTGTTCTCCCAGCTGATGAATTTGTACTGTCGAGTAAACAAATTTTCCTAATCTTTCTGTTCAAGCGCCATCTAC | 3.11 |
| GATGATTGTTCTCCCAGCTGATGAATTGACTTCCTCGAGTAAACAAATTTTCCTAATCTTTCTGTTCAAGCGCCATCTAC | 0.331 |
| GATGATTGTTCTCCCAGCTGATGAATTTGCACTATCGAGTAAACAAATTTTCCTAATCTTTCTGTTCAAGCGCCATCTAC | 0.894 |
| GATGATTGTTCTCCCAGCTGATGAATTCTTTACGTCGAGTAAACAAATTTTCCTAATCTTTCTGTTCAAGCGCCATCTAC | 0.372 |
| GATGATTGTTCTCCCAGCTGATGAATTAACCAACTCGAGTAAACAAATTTTCCTAATCTTTCTGTTCAAGCGCCATCTAC | 0.312 |
| GATGATTGTTCTCCCAGCTGATGAATTCGTAGATTCGAGTAAACAAATTTTCCTAATCTTTCTGTTCAAGCGCCATCTAC | 0.424 |
| GATGATTGTTCTCCCAGCTGATGAATTCTAGAGTTCGAGTAAACAAATTTTCCTAATCTTTCTGTTCAAGCGCCATCTAC | 0.389 |
